# In the antibiotic and cytotoxicity screens of Wong et al. (2023):
# Some of the results follow.
# Test system: HSkMC (human skeletal muscle cells)
# Test: cytotoxicity call (relative viability < 0.9)
# Settings: 10 µM
row,SMILES,cytotoxicity call
1,NCCCC[C@H](N)C(=O)O,inactive
2,Cc1ccc(S(=O)(=O)Nc2ccc3c(c2)C(=O)N([C@H](C)CO)C[C@H](C)[C@H](CN(C)Cc2ccc(C(F)(F)F)cc2)OCCCC[C@@H](C)O3)cc1,inactive
3,C[C@@H]1CN([C@@H](C)CO)C(=O)c2cccc(NC(=O)C3CCOCC3)c2O[C@H]1CN(C)Cc1ccc(-c2ccccc2)cc1,inactive
4,Cc1cccc(NC(=O)Nc2ccc3c(c2)C(=O)N(C)[C@H]2CC[C@H](CC(=O)NCc4ccccc4Cl)O[C@@H]2CO3)c1,inactive
5,C[C@H](CO)N1C[C@H](C)[C@@H](CN(C)Cc2ccc(Cl)c(Cl)c2)Oc2c(NC(=O)C3CCCCC3)cccc2C1=O,inactive
6,C[C@@H]1CN([C@@H](C)CO)C(=O)Cc2cc(NC(=O)Nc3ccccc3)ccc2O[C@@H]1CN(C)S(C)(=O)=O,inactive
7,C[C@@H]1CN([C@H](C)CO)C(=O)c2cc(NC(=O)Cc3ccccc3)ccc2O[C@@H](C)CCCCO[C@H]1CN(C)C(=O)Cc1ccccc1,inactive
8,C[C@@H]1CN([C@H](C)CO)C(=O)Cc2cc(NC(=O)Nc3cccc4ccccc34)ccc2O[C@@H]1CN(C)S(=O)(=O)c1cccs1,inactive
9,C[C@H]1CN([C@@H](C)CO)C(=O)c2cccc(NC(=O)c3ccc(-c4nccs4)cc3)c2O[C@@H]1CN(C)Cc1ccc(Oc2ccccc2)cc1,inactive
10,C[C@H]1CCCCO[C@H](CN(C)S(=O)(=O)c2ccccc2)[C@@H](C)CN([C@@H](C)CO)C(=O)c2cc(NC(=O)CCC(F)(F)F)ccc2O1,inactive
11,Cc1cc(C(=O)Nc2cccc3c2O[C@H](CN(C)S(=O)(=O)c2c(C)noc2C)[C@H](C)CN([C@H](C)CO)C3=O)n(C)n1,inactive
